Data on three molecules can be found in PubChem BioAssay (NCI).

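Cultured in 96-well plates, cells were exposed to test compound for 48 hours across five concentrations. The concentration for 50% growth inhibition is given as GI50. TGI: total growth inhibition.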

In the test the test system is NCI-H322M lung. Nature of the test: inhibition of tumour cell growth, NCI panel, 48 h.
`CC(C)Sc1nc(NCCc2c[nH]c3ccccc23)c(C#N)c(-c2ccccc2)n1`: the GI50 is 15.3 µM and the TGI stood at 33.7 µM.
In the case of `Oc1ccc(/C=C2\CCCc3cc4ccc(O)cc4[o+]c32)c(O)c1`, the GI50 is 12.9 µM and the TGI was determined as 71.5 µM.
Take `O=C(N/N=C/c1c[nH]c2ccccc12)Nc1ccccc1Cl`: the GI50 was 1.06 µM and the TGI is 21.3 µM.
